Laboratory results as given in the RNAGym collection of RNA variant scans (doi:10.7554/elife.90254).
Read counts are not given, so values of variants with three or more changes are uncertain.

B1: LINE1-mini (parent)
chain: GGCAGAGCUCAACACAGCGUGGCAAAGUGGCUGUGGCUAGACUGCC

Variants of: B1
Assay: self-cleavage, relative activity (ratio to wild type); higher = more cleavage; in vitro, sequencing; the parent is a self-cleaving ribozyme

Row | Variant | self-cleavage
1 | G19C G33C G35A | 0.17
2 | G19C A25U G36A C46U | 0.07
3 | G19A A26G G40U | 0.06
4 | G19A G33A U34G U43C G44C | 0.02
5 | C18U C23A C31G U43A | 0.01
6 | G19U A26C G29U C37A | 0.22
7 | C18G G21U G36C | 0.09
8 | C18U C23U U28C G36C | 0.05
9 | C18G U20G C37A | 0.07
10 | C18U C23U A39G U43C | 0.04
11 | U20A G22U C37A C46A | 0.07
12 | C18U G30U G35U | 0.05
13 | G19A U32G G35U G36C A39U | 0.07
14 | G19C G29U C31U A41G | 0.01
15 | C18U G30C G40U | 0.03
16 | C18U A26C U28A | 0.08
17 | U20A G21U A26C U38G | 0.01
18 | G19U U20C C23G U32A | 0.05
19 | C18U A24U C37U A39G | 0.03
20 | G19A U38G A39G C46A | 0.01
21 | C18G C37A A39G | 0.01
22 | C18U U32G U38A | 0.06
23 | C18U U38C C45U | 0.11
24 | C18U C23G A26G C42A | 0.04

Row | Variant | self-cleavage
25 | G19U G29U C37U | 0.02
26 | G19U G29U C37G | 0.03
27 | G19U G40U C45U | 0.02
28 | G19U G22C G36U C37G C45U | 0.02
29 | U20A G29A C31U | 0.34
30 | C18G G27U G29C C42U | 0.12
31 | G19A G36C U38G | 0.02
32 | C18U U20C G30A U38A | 1.11
33 | G19U G36U C45U | 0.07
34 | C18G C37G C46U | 0.04
35 | C18U U20C G22C U34C G44U | 0.08
36 | U20A A25U C31G | 0.12
37 | G19C C31U G35A | 0.39
38 | G19U G36C C42U | 0.05
39 | C18U U34C C46U | 0.04
40 | C18U C23U U38C | 2.16
41 | U20A A26U C31G C46U | 0.02
42 | G19C A26G C46U | 0.93
43 | G19C U20A U38C | 0.09
44 | C18U U38G U43C | 0.02
45 | G19U U34C A39C C45U | 0.09
46 | C18U G36C G40U | 0.03
47 | G19A G21U G30U | 0.74
48 | C18G G22A A24U C42A | 0.23

Row | Variant | self-cleavage
49 | G19A G30A G36C A41U U43A | 0.02
50 | U20A C45G C46U | 0.16
51 | G19U U20G G35U G44A | 0.15
52 | G19C A39G C46G | 0.05
53 | C18G U32C G44A | 0.04
54 | G19C G35U C37G | 0.02
55 | G19U U20G U34A | 0.03
56 | G19C A26C G27A | 0.12
57 | G19C U20A G36A G44U | 0.05
58 | C18U U20A U32C C46U | 0.04
59 | G19C G22A C23U G36A | 0.02
60 | G19U G22A C31G | 0.03
61 | G19C U38A G40A | 0
62 | C18U G27C G29U | 0.41
63 | C18U U20A A41U | 0.4
64 | G19A G22U C42U | 1.51
65 | G19U G21A G30C C46G | 0.11
66 | G19U C23G U32C | 0.06
67 | G19U G21C U38C | 0.22
68 | C18U C37G A39U U43C | 0.04
69 | C18G G36U C45U | 0
70 | G19C U20G A26G | 0.2
71 | G19U A24C G29A | 0.43
72 | C18G G27C G29C | 0.63

Row | Variant | self-cleavage
73 | G19C A41G C46G | 0.05
74 | C18U C23G U34G | 0.05
75 | G19U A25U G33C | 0.05
76 | G19U A24G A25U G27U | 0.5
77 | G19U C31U G40C | 0.02
78 | C18U U34G C46A | 0.03
79 | G19C C23U A25G G33C G35C | 0.03
80 | G19A A26G G35U A39C | 0.09
81 | G19U G30U U34A | 0.03
82 | C18U U28A G30A C31A G33A | 0.02
83 | C18U A24U G27U | 1.2
84 | C18G G40C C42G C45A | 0.02
85 | C18U G19C G22U C42U G44A | 0.02
86 | G19U U20C A26C G30C C31U | 0.11
87 | U20A G21A U34G U38A A41U | 0.04
88 | U20A C31A A41U U43G | 0.01
89 | C18U G29A G40U C46A | 0.15
90 | C18G C23U A26C G40A | 0.11
91 | C18U C23A G29A G36A G44U | 0.04
92 | G19C C23G U34G C37U | 0.04
93 | C18G U20A G36C | 0.08
94 | G19U U20G A24U G29C | 1.66
95 | G19U G21A A26U G29U A41G | 0.49
96 | U20A C42A U43G | 0.1

Row | Variant | self-cleavage
97 | C18U A41G C45U | 0.01
98 | G19U U20G U28G G35A | 0.13
99 | U20A G21A C45A | 1.11
100 | U20A G29A C31U U32A G36C | 0.01
101 | G19U U28G G40U | 0.01
102 | G19A G21C U28G | 0.47
103 | G19C G27C U34A | 0.23
104 | C18U G22U A26C U43G | 0.29
105 | C18U C23A A39U C46A | 0.35
106 | C18G G21U U34G | 0.06
107 | G19C U34A C42A G44A | 0.33
108 | G19A U38C C42A G44U | 0.03
109 | G19U U32G G40U | 0.03
110 | G19A G29A C31G A41U U43A | 0.06
111 | U20A G22U A41C C45G | 0.06
112 | G19U A25C U28G | 0.5
113 | G19C A41C C42A | 0.02
114 | C18U G22U G35A G36A C42A | 0.04
115 | G19C G21A G29U | 0.26
116 | U20A A26C U38C A39G C42G | 0.07
117 | G19A C37A C45U | 0.05
118 | G19U G30U C31G G44A | 0.04
119 | G19U G21C C23U G29C G44A | 0.14
120 | G19U A26G G40A U43G C45G | 0.03

Row | Variant | self-cleavage
121 | G19C G33A G40A G44A C45A | 0.03
122 | G19U U32A C37A | 0.03
123 | G19A G33A C42U | 0.05
124 | C18U C31G C37U G40C | 0.01
125 | G19A U28A C46G | 0.14
126 | G19A G40A C45A | 0.08
127 | C18U A25U G33A C37U A39U | 0.16
128 | C18G G36U G40U A41G | 0.04
129 | C18U G29A G36A | 0.3
130 | G19A G27U G36C | 0.06
131 | C18U U20A U32C C37A U43A | 0.38
132 | C18U G19A C42G | 0.04
133 | G19C U20A A26U U34A | 0.1
134 | C18U A24U U34G G36A C45U | 0.03
135 | G19U U34C G35A | 0.03
136 | G19U G27A U32A C46G | 0.03
137 | C18U A25G C37U U38C A39U A41G | 0.03
138 | G19A C31U U32A G33A | 0.03
139 | C18U A25U A39G U43C | 0.01
140 | U20A C23A G30A A39G A41C G44U | 0.05
141 | G19U G22U G27U | 0.13
142 | G19U C42U U43C | 0.07
143 | C18G G21A C31U | 0.04
144 | G19C C37A A39C G40U | 0

Row | Variant | self-cleavage
145 | G19A G22C A24G | 0.3
146 | G19A G22U G44C | 0.58
147 | G19A G22C G40A | 0.15
148 | G19C C31U A39U C45U | 0.74
149 | G19C G30C A41C | 0.05
150 | C18U G21A A24U G35A | 0.2
151 | G19U U20A C31A U43C | 0.03
152 | C18G G22U A41U | 0.39
153 | C18G G19A G27U | 0.12
154 | G19U C31A G36A | 0.07
155 | G19C U20G A41C | 0.04
156 | G19C U28C U32C G33A | 0.12
157 | G19C G22U C45G C46A | 0.07
158 | U20A G22U U28A U38A | 0.2
159 | G19A A25U U34A C37G | 0.06
160 | C18U C23G G35C | 0.02
161 | G19C C23U G33A A41U | 0.45
162 | C18G C31G U32C C46U | 0.05
163 | C18U C23U A26U U28A G35C | 0.02
164 | G19A U32G G36U | 0.11
165 | C18G G29U G40U | 0.08
166 | C18U G22A A26U | 0.51
167 | G19U U20A A41U | 0.21
